According to the supplement of paper PMC12423691:
This is one part of the list. Binding of human transcription factors and regulators to the viral nucleoprotein by AlphaScreen, crude cell-free proteins, amounts not normalised, one pass. Fold of the Venus control; higher = more signal. No active / inactive call. Single-pass screen; sequences are the whole Swiss-Prot entries looked up by name.

B1: PROX1, Q92786 (protein)
chain: MPDHDSTALLSRQTKRRRVDIGVKRTVGTASAFFAKARATFFSAMNPQGSEQDVEYSVVQHADGEKSNVLRKLLKRANSYEDAMMPFPGATIISQLLKNNMNKNGGTEPSFQASGLSSTGSEVHQEDICSNSSRDSPPECLSPFGRPTMSQFDMDRLCDEHLRAKRARVENIIRGMSHSPSVALRGNENEREMAPQSVSPRESYRENKRKQKLPQQQQQSFQQLVSARKEQKREERRQLKQQLEDMQKQLRQLQEKFYQIYDSTDSENDEDGNLSEDSMRSEILDARAQDSVGRSDNEMCELDPGQFIDRARALIREQEMAENKPKREGNNKERDHGPNSLQPEGKHLAETLKQELNTAMSQVVDTVVKVFSAKPSRQVPQVFPPLQIPQARFAVNGENHNFHTANQRLQCFGDVIIPNPLDTFGNVQMASSTDQTEALPLVVRKNSSDQSASGPAAGGHHQPLHQSPLSATTGFTTSTFRHPFPLPLMAYPFQSPLGAPSGSFSGKDRASPESLDLTRDTTSLRTKMSSHHLSHHPCSPAHPPSTAEGLSLSLIKSECGDLQDMSEISPYSGSAMQEGLSPNHLKKAKLMFFYTRYPSSNMLKTYFSDVKFNRCITSQLIKWFSNFREFYYIQMEKYARQAINDGVTSTEELSITRDCELYRALNMHYNKANDFEVPERFLEVAQITLREFFNAIIAGKDVDPSWKKAIYKVICKLDSEVPEIFKSPNCLQELLHE
B2: NR1I2, O75469 (protein)
chain: MEVRPKESWNHADFVHCEDTESVPGKPSVNADEEVGGPQICRVCGDKATGYHFNVMTCEGCKGFFRRAMKRNARLRCPFRKGACEITRKTRRQCQACRLRKCLESGMKKEMIMSDEAVEERRALIKRKKSERTGTQPLGVQGLTEEQRMMIRELMDAQMKTFDTTFSHFKNFRLPGVLSSGCELPESLQAPSREEAAKWSQVRKDLCSLKVSLQLRGEDGSVWNYKPPADSGGKEIFSLLPHMADMSTYMFKGIISFAKVISYFRDLPIEDQISLLKGAAFELCQLRFNTVFNAETGTWECGRLSYCLEDTAGGFQQLLLEPMLKFHYMLKKLQLHEEEYVLMQAISLFSPDRPGVLQHRVVDQLQEQFAITLKSYIECNRPQPAHRFLFLKIMAMLTELRSINAQHTQRLLRIQDIHPFATPLMQELFGITGS
B3: TP53BP1, Q12888 (protein)
chain: MDPTGSQLDSDFSQQDTPCLIIEDSQPESQVLEDDSGSHFSMLSRHLPNLQTHKENPVLDVVSNPEQTAGEERGDGNSGFNEHLKENKVADPVDSSNLDTCGSISQVIEQLPQPNRTSSVLGMSVESAPAVEEEKGEELEQKEKEKEEDTSGNTTHSLGAEDTASSQLGFGVLELSQSQDVEENTVPYEVDKEQLQSVTTNSGYTRLSDVDANTAIKHEEQSNEDIPIAEQSSKDIPVTAQPSKDVHVVKEQNPPPARSEDMPFSPKASVAAMEAKEQLSAQELMESGLQIQKSPEPEVLSTQEDLFDQSNKTVSSDGCSTPSREEGGCSLASTPATTLHLLQLSGQRSLVQDSLSTNSSDLVAPSPDAFRSTPFIVPSSPTEQEGRQDKPMDTSVLSEEGGEPFQKKLQSGEPVELENPPLLPESTVSPQASTPISQSTPVFPPGSLPIPSQPQFSHDIFIPSPSLEEQSNDGKKDGDMHSSSLTVECSKTSEIEPKNSPEDLGLSLTGDSCKLMLSTSEYSQSPKMESLSSHRIDEDGENTQIEDTEPMSPVLNSKFVPAENDSILMNPAQDGEVQLSQNDDKTKGDDTDTRDDISILATGCKGREETVAEDVCIDLTCDSGSQAVPSPATRSEALSSVLDQEEAMEIKEHHPEEGSSGSEVEEIPETPCESQGEELKEENMESVPLHLSLTETQSQGLCLQKEMPKKECSEAMEVETSVISIDSPQKLAILDQELEHKEQEAWEEATSEDSSVVIVDVKEPSPRVDVSCEPLEGVEKCSDSQSWEDIAPEIEPCAENRLDTKEEKSVEYEGDLKSGTAETEPVEQDSSQPSLPLVRADDPLRLDQELQQPQTQEKTSNSLTEDSKMANAKQLSSDAEAQKLGKPSAHASQSFCESSSETPFHFTLPKEGDIIPPLTGATPPLIGHLKLEPKRHSTPIGISNYPESTIATSDVMSESMVETHDPILGSGKGDSGAAPDVDDKLCLRMKLVSPETEASEESLQFNLEKPATGERKNGSTAVAESVASPQKTMSVLSCICEARQENEARSEDPPTTPIRGNLLHFPSSQGEEEKEKLEGDHTIRQSQQPMKPISPVKDPVSPASQKMVIQGPSSPQGEAMVTDVLEDQKEGRSTNKENPSKALIERPSQNNIGIQTMECSLRVPETVSAATQTIKNVCEQGTSTVDQNFGKQDATVQTERGSGEKPVSAPGDDTESLHSQGEEEFDMPQPPHGHVLHRHMRTIREVRTLVTRVITDVYYVDGTEVERKVTEETEEPIVECQECETEVSPSQTGGSSGDLGDISSFSSKASSLHRTSSGTSLSAMHSSGSSGKGAGPLRGKTSGTEPADFALPSSRGGPGKLSPRKGVSQTGTPVCEEDGDAGLGIRQGGKAPVTPRGRGRRGRPPSRTTGTRETAVPGPLGIEDISPNLSPDDKSFSRVVPRVPDSTRRTDVGAGALRRSDSPEIPFQAAAGPSDGLDASSPGNSFVGLRVVAKWSSNGYFYSGKITRDVGAGKYKLLFDDGYECDVLGKDILLCDPIPLDTEVTALSEDEYFSAGVVKGHRKESGELYYSIEKEGQRKWYKRMAVILSLEQGNRLREQYGLGPYEAVTPLTKAADISLDNLVEGKRKRRSNVSSPATPTASSSSSTTPTRKITESPRASMGVLSGKRKLITSEEERSPAKRGRKSATVKPGAVGAGEFVSPCESGDNTGEPSALEEQRGPLPLNKTLFLGYAFLLTMATTSDKLASRSKLPDGPTGSSEEEEEFLEIPPFNKQYTESQLRAGAGYILEDFNEAQCNTAYQCLLIADQHCRTRKYFLCLASGIPCVSHVWVHDSCHANQLQNYRNYLLPAGYSLEEQRILDWQPRENPFQNLKVLLVSDQQQNFLELWSEILMTGGAASVKQHHSSAHNKDIALGVFDVVVTDPSCPASVLKCAEALQLPVVSQEWVIQCLIVGERIGFKQHPKYKHDYVSH
B4: ATOH1, Q92858 (protein)
chain: MSRLLHAEEWAEVKELGDHHRQPQPHHLPQPPPPPQPPATLQAREHPVYPPELSLLDSTDPRAWLAPTLQGICTARAAQYLLHSPELGASEAAAPRDEVDGRGELVRRSSGGASSSKSPGPVKVREQLCKLKGGVVVDELGCSRQRAPSSKQVNGVQKQRRLAANARERRRMHGLNHAFDQLRNVIPSFNNDKKLSKYETLQMAQIYINALSELLQTPSGGEQPPPPPASCKSDHHHLRTAASYEGGAGNATAAGAQQASGGSQRPTPPGSCRTRFSAPASAGGYSVQLDALHFSTFEDSALTAMMAQKNLSPSLPGSILQPVQEENSKTSPRSHRSDGEFSPHSHYSDSDEAS

What follows are binders tested against nucleoprotein N of Crimean-Congo hemorrhagic fever virus (assay: AlphaScreen luminescence signal relative to Venus negative control (fold); higher = stronger binding to CCHFV N).
Procedure: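 AlphaScreen binding of cell-free made, FLAG-GST-tagged human transcription factors and regulators (crude translation products) to biotinylated N protein; signal as fold of the FLAG-GST-Venus control. One pass.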
In the case of B1, the AlphaScreen luminescence signal is reported as 2.33.
B2 was tested, and the AlphaScreen luminescence signal was 2.33.
For B3, the AlphaScreen luminescence signal was 1.81.
B4 showed an AlphaScreen luminescence signal of 2.14.
